From the supplement of paper PMC4967469
By IC50 is meant the dose at which the fit gives 50% viability; where the fit passes the top or lowest dose, that dose stands as a limit. AUC, from the same fit, is the share of area under the viability curve across the 256-fold dose range; values near 1 show little effect. For some of these results: Where the top dose is marked as inferred, it comes from the curve model; the source does not state it. For some of these results: An entry number marks a drug with two screens in the source, which often give different values.

What was measured:
Experiment in all cases: Viability of human cancer cell lines after 72 h of drug (GDSC screen)
[1] = compound: C[C@]1(c2nc3c(C(N)=O)cccc3[nH]2)CCCN1 [ABT-888]; settings: top dose 5 µM; top dose inferred
Procedure: (§1)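 Human cancer cell lines in 384-well plates, medium with 10% serum, drug for 72 h over a 256-fold dose range (nine 2-fold or five 4-fold steps up to the top dose). Adherent lines were fixed and stained with the nucleic acid dye Syto60, suspension lines read with resazurin; signal relative to control wells, capped at 0 and 100%. One two-parameter sigmoid per drug and line, fitted in a mixed model over all curves with the slope shared within a line.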

[2] = compound: CCn1c(-c2nonc2N)nc2cnc(Oc3cccc(NC(=O)c4ccc(OCCN5CCOCC5)cc4)c3)cc21 [GSK269962A]; settings: top dose 5 µM; screen: GDSC drug entry 1192; top dose inferred
Procedure: as §1

[3] = compound: C=CC(=O)Nc1cc(-n2c(=O)ccc3cnc4ccc(-c5cn[nH]c5)cc4c32)ccc1C [QL-X-138]; settings: top dose 10.24 µM; top dose inferred
Procedure: as §1

[4] = compound: Nc1ccn([C@@H]2O[C@H](CO)[C@@H](O)[C@@H]2O)c(=O)n1 [Cytarabine]; settings: top dose 2 µM
Procedure: as §1

[5] = compound: Cc1ccc(F)c(NC(=O)Nc2ccc(-c3cccc4[nH]nc(N)c34)cc2)c1 [ABT-869]; settings: top dose 1.024 µM; top dose inferred
Procedure: as §1

[6] = compound: Cc1cnc(-c2cnc(NCCNc3ccc(C#N)cn3)nc2-c2ccc(Cl)cc2Cl)[nH]1 [CHIR-99021]
Procedure: as §1

[7] = compound: COc1cc(O)c2c(c1)/C=C/C[C@H](O)[C@H](O)C(=O)/C=C\C[C@H](C)OC2=O [(5Z)-7-Oxozeaenol]; settings: top dose 10 µM; top dose inferred
Procedure: as §1

[8] = compound: COc1cc(N2CCC(O)CC2)ccc1Nc1cc(Nc2ccccc2S(=O)(=O)C(C)C)c2cc[nH]c2n1 [MPS-1-IN-1]; settings: top dose 20 µM; top dose inferred
Procedure: as §1

[9] = compound: O=c1cc(-c2cccc3c2Sc2ccccc2S3)oc(N2CCOCC2)c1 [KU-55933]; settings: top dose 10 µM
Procedure: as §1

[10] = compound: COc1nc(C)cnc1NS(=O)(=O)c1cccnc1-c1ccc(-c2nnco2)cc1 [Zibotentan]; settings: top dose 20 µM; top dose inferred
Procedure: as §1

[11] = compound: COc1cc2ncnc(-n3nc(-c4ccccn4)nc3N)c2cc1OC [CP466722]; settings: top dose 16 µM; top dose inferred
Procedure: as §1

[12] = top dose 10 µM, screen: GDSC drug entry 1241, top dose inferred
[13] = top dose 2.56 µM, screen: GDSC drug entry 154

Cell Line | AUC [1] | IC50 [1] [µM] | AUC [2] | IC50 [2] [µM] | AUC [3] | IC50 [3] [µM] | AUC [4] | IC50 [4] [µM] | AUC [5] | IC50 [5] [µM] | AUC [6, 12] | IC50 [6, 12] [µM] | AUC [7] | IC50 [7] [µM] | AUC [8] | IC50 [8] [µM] | AUC [9] | IC50 [9] [µM] | AUC [10] | IC50 [10] [µM] | AUC [11] | IC50 [11] [µM] | AUC [6, 13] | IC50 [6, 13] [µM]
ESO51 (oesophagus, semi-adherent) | 0.961 | > 5 | 0.944 | > 5 | 0.789 | 6.76 | 0.78 | 1.2 | 0.98 | > 1.02 | 0.966 | > 10 | 0.85 | > 10 | 0.932 | > 20 | 0.974 | > 10 | 0.98 | > 20 | 0.916 | > 16 |  | 
H513 (mesothelioma, semi-adherent) | 0.986 | > 5 | 0.984 | > 5 | 0.896 | > 10.2 | 0.86 | > 2 | 0.974 | > 1.02 | 0.933 | > 10 | 0.73 | 3.3 | 0.986 | > 20 | 0.965 | > 10 | 0.985 | > 20 | 0.939 | > 16 | 0.984 | > 2.56
HCC1143 (breast, adherent) | 0.98 | > 5 | 0.969 | > 5 | 0.749 | 4.54 | 0.828 | 1.98 | 0.977 | > 1.02 | 0.977 | > 10 | 0.737 | 3.98 | 0.817 | 17.4 | 0.941 | > 10 | 0.973 | > 20 | 0.768 | 8.44 | 0.913 | > 2.56
Hey (ovary, adherent) | 0.974 | > 5 | 0.873 | 4.33 | 0.595 | 1.15 | 0.429 | 0.0808 | 0.985 | > 1.02 | 0.901 | > 10 | 0.462 | 0.495 | 0.857 | 14.8 | 0.978 | > 10 | 0.987 | > 20 | 0.813 | 8.01 |  | 
Hs746T (stomach, adherent) | 0.977 | > 5 | 0.934 | > 5 | 0.519 | 0.734 | 0.817 | 1.66 | 0.98 | > 1.02 | 0.952 | > 10 | 0.663 | 2.09 | 0.981 | > 20 | 0.95 | > 10 | 0.963 | > 20 | 0.907 | > 16 | 0.981 | > 2.56
NCI-H2052 (mesothelioma, adherent) | 0.982 | > 5 |  |  | 0.925 | > 10.2 | 0.875 | > 2 | 0.966 | > 1.02 |  |  |  |  | 0.979 | > 20 | 0.978 | > 10 | 0.981 | > 20 | 0.902 | > 16 | 0.981 | > 2.56
RCH-ACV (B-cell leukaemia, suspension) | 0.984 | > 5 | 0.521 | 0.352 |  |  | 0.332 | 0.0468 |  |  | 0.839 | 5.16 | 0.798 | 3.83 |  |  | 0.896 | 8.46 |  |  |  |  |  | 
RH-18 (rhabdomyosarcoma, adherent) | 0.984 | > 5 | 0.91 | > 5 |  |  | 0.951 | > 2 |  |  | 0.954 | > 10 | 0.771 | 4.39 |  |  | 0.954 | > 10 |  |  | 0.816 | 10.5 |  | 
SK-GT-2 (stomach, adherent) | 0.965 | > 5 | 0.919 | > 5 |  |  | 0.823 | 1.26 |  |  | 0.971 | > 10 | 0.824 | 6.38 |  |  | 0.962 | > 10 |  |  |  |  |  | 
SK-MEL-31 (melanoma, adherent) | 0.985 | > 5 | 0.959 | > 5 |  |  | 0.878 | > 2 |  |  | 0.905 | > 10 | 0.792 | 5.98 |  |  | 0.975 | > 10 |  |  |  |  |  | 
SUP-B8 (B-cell leukaemia, suspension) | 0.989 | > 5 | 0.929 | > 5 |  |  | 0.987 | > 2 |  |  | 0.988 | > 10 | 0.684 | 2.04 |  |  | 0.934 | > 10 |  |  |  |  |  | 
TC-YIK (cervix, suspension) | 0.991 | > 5 | 0.629 | 0.672 |  |  | 0.862 | 1.35 |  |  | 0.938 | > 10 | 0.738 | 2.67 |  |  | 0.973 | > 10 |  |  |  |  |  | 
VMRC-LCD (lung adenocarcinoma, adherent) | 0.993 | > 5 | 0.807 | 2.08 |  |  | 0.874 | 1.41 |  |  | 0.992 | > 10 | 0.793 | 3.75 |  |  | 0.991 | > 10 |  |  |  |  |  | 
ZR-75-30 (breast, adherent) | 0.983 | > 5 | 0.942 | > 5 |  |  | 0.859 | > 2 |  |  | 0.975 | > 10 | 0.899 | > 10 |  |  | 0.975 | > 10 |  |  |  |  |  | 
